Out of some 310,000 compounds screened, about 14,000 (4.5%) showed an effect of 50% or more. Effects have a minus sign here. This is one part of the list.
target: human ether-à-go-go-related gene (hERG) potassium channel (human, UniProt Q12809); assay: primary screen, population patch clamp on CHO cells stably expressing hERG
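Note: peak tail current of the secondary pulse compared with the same well before compound.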

Sequence of human ether-à-go-go-related gene (hERG) potassium channel (Q12809 whole entry, looked up): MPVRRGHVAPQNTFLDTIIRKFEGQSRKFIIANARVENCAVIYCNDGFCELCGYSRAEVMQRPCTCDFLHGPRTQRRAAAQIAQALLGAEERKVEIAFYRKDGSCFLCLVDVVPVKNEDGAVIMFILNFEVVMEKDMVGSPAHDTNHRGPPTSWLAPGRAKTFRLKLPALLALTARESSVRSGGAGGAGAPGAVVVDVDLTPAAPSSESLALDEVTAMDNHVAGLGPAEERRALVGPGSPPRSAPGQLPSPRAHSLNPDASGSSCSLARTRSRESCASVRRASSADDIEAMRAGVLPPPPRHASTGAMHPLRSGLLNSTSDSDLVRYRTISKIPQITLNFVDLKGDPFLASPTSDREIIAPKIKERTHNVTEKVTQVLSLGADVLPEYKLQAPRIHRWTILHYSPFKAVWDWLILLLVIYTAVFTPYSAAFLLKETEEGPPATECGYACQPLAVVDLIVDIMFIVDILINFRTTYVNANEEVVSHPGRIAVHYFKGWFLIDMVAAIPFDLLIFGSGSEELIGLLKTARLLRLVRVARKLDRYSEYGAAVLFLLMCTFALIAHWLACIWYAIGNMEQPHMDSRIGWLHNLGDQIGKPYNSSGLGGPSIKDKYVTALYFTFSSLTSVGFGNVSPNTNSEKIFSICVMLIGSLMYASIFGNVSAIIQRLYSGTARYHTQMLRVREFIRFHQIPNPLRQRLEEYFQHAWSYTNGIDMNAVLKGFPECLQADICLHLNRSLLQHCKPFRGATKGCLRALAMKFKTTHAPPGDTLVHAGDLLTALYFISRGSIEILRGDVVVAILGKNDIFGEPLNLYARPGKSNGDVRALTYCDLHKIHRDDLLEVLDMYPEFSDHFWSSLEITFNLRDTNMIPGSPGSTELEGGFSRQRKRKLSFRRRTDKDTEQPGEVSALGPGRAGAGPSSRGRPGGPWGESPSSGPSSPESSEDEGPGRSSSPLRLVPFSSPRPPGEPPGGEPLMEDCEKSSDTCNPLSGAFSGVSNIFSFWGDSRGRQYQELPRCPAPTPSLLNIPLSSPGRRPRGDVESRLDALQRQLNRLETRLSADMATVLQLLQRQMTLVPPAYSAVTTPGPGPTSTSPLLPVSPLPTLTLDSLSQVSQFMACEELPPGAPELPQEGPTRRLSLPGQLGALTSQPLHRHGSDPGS

SMILES | hERG current change (%, negative = inhibition) at 10uM
CCOC(=O)CSc1nnc(-c2ccco2)n1-c1ccccc1 | -27.6%
COC(=O)c1ccc2nc(-c3cccc(N)c3)cn2c1 | -5.16%
CN(C)C=NC(=O)c1cc(C(=O)c2ccc(F)cc2)c[nH]1 | -16.2%
CCCCn1c(CNC(=O)Cc2ccccc2)nc2ccccc21 | -9.43%
COc1ccc(C(=O)Nn2c(C)nc3ccccc3c2=O)cc1[N+](=O)[O-] | -6.08%
COCC(=O)N(Cc1cc2cc(C)ccc2[nH]c1=O)c1ccc(C)c(C)c1 | 7.89%
N#CCCC1CCCC=C1N(Cc1ccccc1)C(=O)C(Cl)Cl (stereo not shown) | -13.3%
Cc1ccc(NC(=O)c2ccc(=O)[nH]n2)cc1C | -1.5%
COC(=O)c1ccc(CNC(=O)C2CCC(=O)N(CCc3ccccc3)C2)cc1 (stereo not shown) | -17.7%
CCCCC(C)n1[nH]c(=O)cc1N (stereo not shown) | 7.31%
O=C(NC1CCCCC1)C(c1ccccc1F)N(Cc1ccco1)C(=O)Cn1nnc2ccccc21 (stereo not shown) | -5.98%
O=S(=O)(O)c1ccc(N=Nc2ccccc2)cc1 | 14.6%
CCN(CC)S(=O)(=O)c1ccc2c(c1)nc(-c1ccccn1)n2C | 2.89%
Cc1occc1C(=O)Nc1cccc(Cn2cccn2)c1 | -10.6%
COc1ccc(OCCC(=O)OCc2c(C)noc2C)cc1 | 0.92%
COCCNC(=O)C(c1ccc(O)cc1)N(Cc1ccccc1)C(=O)CCC(=O)Nc1nccs1 (stereo not shown) | 9.43%
O=C(c1cc(COc2cccc(C(F)(F)F)c2)on1)N1C[C@@H]2CCC[C@H]1C2 | 0.495%
CCCCOC(=O)CCn1[nH]c(=O)c2ccccc2c1=O | 0.159%
O=C(C(F)C(F)(F)F)N1CCN(c2ccccc2)CC1 (stereo not shown) | 6.74%
CCNC(=S)Nc1scc(-c2ccccc2)c1C(=O)OCC | 8.76%
CCN(CC)S(=O)(=O)c1cc(NC(=O)C2Cc3ccccc3C(=O)O2)ccc1C (stereo not shown) | -44.7%
COc1ccc(-c2coc3c(CN4CCCCC4C)c(O)ccc3c2=O)cc1 (stereo not shown) | -39.4%

SMILES | hERG current change (%, negative = inhibition) at 10uM
COc1ccccc1NC(=O)COC(=O)CCc1ccc(S(=O)(=O)N2CCOCC2)cc1 | -14.1%
S=C(Nc1ccc(Cl)c(Cl)c1)NC1CCN(Cc2ccccc2)CC1 | 3.52%
O=S(=O)(Nc1cccc(Oc2cnccn2)c1)c1ccc(F)cc1 | 14.4%
CNC(=O)CN(c1cccc2ccccc12)S(C)(=O)=O | 1.47%
CCn1nc(C)c(CNC(=O)c2ccc(OC3CCN(Cc4ccccn4)CC3)cc2)c1C | 17.3%
Cc1nn(-c2ccccn2)c2c1C(c1c(F)cccc1Cl)C1=C(N2)c2ccccc2C1=O (stereo not shown) | -4.66%
O=S(=O)(c1ccc2c(c1)OCCO2)N1CCC(c2nc3ccccc3[nH]2)CC1 | 3.43%
COC(=O)[C@@H]1C[C@@]2(O)[C@@H](O)[C@@H](O)[C@@H](O)C[C@H]2N1Cc1ccc(C(F)(F)F)cc1 | 11.3%
Clc1cc(Cl)cc(C2=NCCC(c3ccccc3)O2)c1 (stereo not shown) | -8.69%
Cn1c(/C=C/c2ccc(Br)cc2)c([N+](=O)[O-])c(=O)n(C)c1=O | -42.6%
O=C(O)c1nn(CCOc2ccccc2F)c(=O)c2ccccc12 | 3.27%
O=C(O)c1cccc(S(=O)(=O)NCC2CCCO2)c1 (stereo not shown) | -8.4%
Cc1ccc(SC(CC(=O)c2ccc(F)cc2)C(=O)O)cc1 (stereo not shown) | 27.5%
CCCN(CCC)CCCNS(=O)(=O)c1cc(Br)cc2c1N(C(C)=O)CC2 | 3.15%
CC(=O)N1CCSc2ccc(S(=O)(=O)Nc3ccc(C)cc3)cc21 | 8.86%
COc1ccccc1NC(=O)CCCC(=O)OC(C)C(=O)c1ccccc1 (stereo not shown) | -24.1%
CCC(Oc1cc(Cl)ccc1Cl)C(=O)NNC(=O)CCC(=O)O (stereo not shown) | 42.2%
O=C(CSc1nc2ccccc2[nH]1)NCCCn1ccnc1 | 25.2%
CCCOc1ccccc1Cn1c(=O)oc2ccc(C)cc21 | 4.55%
O=C(CN1C(=O)NC2(CCCC2)C1=O)Nc1cc(Cl)ccc1Oc1ccccc1 | -19.8%
CCOc1ccc(N(CC(=O)Nc2ccccc2C(=O)NCc2ccco2)S(C)(=O)=O)cc1 | -36.3%
Fc1ccccc1Cn1cnc(NC(=S)NCCc2ccccc2)n1 | 17.9%

SMILES | hERG current change (%, negative = inhibition) at 10uM
Cc1nnc(SCC(=O)Nc2cc(C(C)(C)C)nn2-c2ccccc2)s1 | -12.9%
Cc1ccc(C)c(OCCC(=O)NNC(=O)c2ccncc2)c1 | 29.9%
Cl.N=c1ccn(Cc2ccc([N+](=O)[O-])cc2)cc1 | 5.42%
Cc1ccc(C(=O)C2CCN(CC(=O)Nc3ccc4c(c3)OCCO4)CC2)cc1 | -2.3%
COc1ccc(CCNC(=O)CN(Cc2ccc(Cl)cc2)S(C)(=O)=O)cc1 | -25.5%
COc1ccc(C(C(=O)NC2CCCCC2)N(CC2CCCO2)C(=O)CNC(=O)c2ccco2)cc1 (stereo not shown) | -17.3%
CCCc1nn(C)c2c(=O)[nH]c(-c3cc(S(N)(=O)=O)ccc3OCC)nc12 | -7.55%
COc1cccc(-c2cc(C(F)(F)F)nc(-n3cccn3)n2)c1 | -36.9%
OCC(Br)CBr (stereo not shown) | 23%
CN(C)S(=O)(=O)c1ccc(Oc2ccc(S(=O)(=O)N(C)C)cc2)cc1 | -15.7%
O=C(NCCc1ccccc1)C1CC(=O)N(c2ccc3c(c2)OCCO3)C1 (stereo not shown) | 3.8%
COC(=O)CSc1nc(-c2cccs2)ccc1C#N | 1.99%
CN(C)CCCNC(=O)c1ccc(CN(c2ccccc2)S(C)(=O)=O)cc1 | 4.06%
Cc1cccc(NC(=O)CSc2nc3ccccc3nc2N2CCCCC2)c1 | -36.5%
O=C(Cc1cccs1)Nc1nnc(Cc2ccccc2)s1 | 12.6%
COc1cc(/C=C2\CCOC2=O)cc(OC)c1OC | 23.9%
COc1ccc(S(=O)(=O)N2CCC(c3nc4ccccc4[nH]3)CC2)cc1 | 10.3%
CC[C@@]12C(=O)N(c3ccccc3)C(=O)N1[C@H](c1ccc(Br)cc1)[C@@H]1C(=O)N(C(C)(C)C)C(=O)[C@@H]12 | 4.22%
Cc1ncc(CSc2ccc(Cl)cc2)c(CO)c1O | 6.34%
Cc1ccccc1C(=O)NC(=S)NC1CC1 | 18.7%
CCOC(=O)C1(CCOC)CCN(C(=O)c2ccccc2-c2cccc(C)c2)CC1 | -7.44%
CSCC(=O)Nc1nc(-c2ccc3c(c2)OCCO3)cs1 | -2.09%

SMILES | hERG current change (%, negative = inhibition) at 10uM
CCOC(=O)C1CCN(C(=O)C2CCN(S(=O)(=O)c3cc(Cl)ccc3Cl)CC2)CC1 | -30.1%
COc1ccccc1NC(=O)Cc1noc(CSc2nnc(C(F)(F)F)n2C)n1 | -8.97%
CCOC(=O)N1CCC(NC(=O)c2cc(-c3ccc(OC)cc3)nc3ccccc23)CC1 | 19%
C/C(=N\Nc1ccc(S(=O)(=O)N2CCOCC2)cc1[N+](=O)[O-])C(C)C | 7.68%
COc1ccc(C(=O)Nc2nc3cc4c(cc3s2)OCCO4)c(OC)c1 | 4.26%
O=C(CSCC(=O)Nc1nc(-c2ccc3c(c2)OCO3)cs1)Nc1nccs1 | 16.5%
CCOC(=O)CNC(=O)c1cc(-c2ccccn2)nc2c(C)c(Cl)ccc12 | 7.46%
NNC(=O)c1ccc(Cn2cc(Cl)cn2)o1 | 15.6%
O=C(OCCc1cc2ccccc2c(=O)o1)c1cccc(Br)c1 | 12.5%
O=C(c1ccc(S(=O)(=O)N2CCOCC2)cc1)N1CCc2ccccc2C1 | -4.25%
CC(C)C(C)(C#N)NC(=O)CN1C(=O)NC2(CCCc3ccccc32)C1=O (stereo not shown) | 22.9%
Cc1cc(C(=O)O)c(CSCc2cc(C(=O)O)oc2C)o1 | 6.67%
O=C(C1CCN(C2CCN(Cc3ccc4c(c3)CCO4)CC2)CC1)N1CCOCC1 | -26.6%
O=C(N/N=C/c1cc([N+](=O)[O-])ccc1O)c1cccc(NC(=O)c2cccc(Cl)c2)c1 | 20.8%
COC(=O)c1ccccc1NC(=O)c1cc2nc(C3CC3)cc(C(F)(F)F)n2n1 | 9.42%
Cc1nc2ccccc2c2oc(C(=O)NCC3COc4ccccc4O3)cc12 (stereo not shown) | -18.1%
COc1ccccc1NC(=O)C(C)OC(=O)c1ccc(-n2cnnn2)cc1 (stereo not shown) | -87.5%
COc1cccc(-c2cc(=O)c3cc(NC(=O)c4ccccc4)ccc3[nH]2)c1 | -4.52%
CCN(CC)C(=O)CC(c1ccc(N(C)C)cc1)c1c(O)cc(OC)cc1OC (stereo not shown) | 18.7%
CC1(C)CC(=O)C(/C=N/c2ncccc2C(=O)O)=C(O)C1 | 0.446%
Cc1cc(=O)oc(C)c1C(=O)NCCNC(=O)c1c(C)cc(=O)oc1C | 3.85%
COc1ccc(-n2c(SC)nc(O)c(Cc3ccccc3)c2=O)cc1 | 7.51%
